In patent US8247220B2, “Optical indicator for detecting bacterial pathogens” (Kimberly-Clark Worldwide, Inc., priority 2008, dated 2012):

Tested on: Adenovirus Type 2 (ATCC # VR-846), Adenovirus Type 5 (ATCC # VR-5)
Assay: Reichardt's dye-treated samples with upper respiratory viruses
Details: compared with Salmonella bacterial control at a similar concentration

Structure (SMILES): [O-]c1c(-c2ccccc2)cc(-[n+]2c(-c3ccccc3)cc(-c3ccccc3)cc2-c2ccccc2)cc1-c1ccccc1 [Reichardt's dye, 4-(2,4,6-triphenylpyridinium-1-yl)-2,6-diphenylphenolate]
- de-colorization of the dye: almost no ability to de-colorize the dye
